Reference: article PMC5892938
The list shows a part of the results. At the low end of the ranking the order means little.

Target: GST-SBP-SLBP (stem-loop binding protein) (UniProt Q14493)
Assay: targeted RNA Bind-n-Seq;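 also: DESeq read counts versus GST-SBP nonspecific binding control pulldown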
Conditions: RBNS binding buffer: 25 mM Tris pH 7.5, 150 mM KCl, 3 mM MgCl2, 0.1% Tween, 0.5 mg/mL BSA, 1 mM DTT; 27 nM protein, 750 pM RNA pool; temperature not stated; high values mean tight binding

Sequence | binding signal (log2 fold change)
GGUCACGUCUCAAUCAACUCUAUCCCAGGAGUUUACUCCUGUUUAUUCAACAGCUCGCAGUCAAG | 0.184
GGUCACGUCUCAAUCAACUCAAUUCCCAGGGAAAACCCUGGUUUAUUCAACAGCUCGCAGUCAAG | -0.0328
GGUCACGUCUCAAUCAACUCAUUUUCCAGGGAAAACCCUGGCAGUCUCAACAGCUCGCAGUCAAG | 0.0702
GGUCACGUCUCAAUCAACUCAUAAGAGGGGGGGAAAACCCCUUUGCCCUCAAUCUCAACAGCUCGCAGUCAAG | 0.373
GGUCACGUCUCAAUCAACUCCCUAGAGGGGGGGAAAACCCCUUUACCCUCACUAUCAACAGCUCGCAGUCAAG | -0.114
GGUCACGUCUCAAUCAACUCAUCGUCAGGAGUUUCCUCCUGCAUAUUCAACAGCUCGCAGUCAAG | -0.0426
GGUCACGUCUCAAUCAACUCUAUCUCCAGGGAAAUCCCUGGCUUAUUCAACAGCUCGCAGUCAAG | 0.00482
GGUCACGUCUCAAUCAACUCUUCUUCCAGGGAAAGCCCUGGUUAUUUCAACAGCUCGCAGUCAAG | -0.318
GGUCACGUCUCAAUCAACUCAUCUCCCAGGGAAAACCCUGGUAUACUCAACAGCUCGCAGUCAAG | -0.163
GGUCACGUCUCAAUCAACUCAGUCUCAGGAGUUUCCUCCUGCUUAUUCAACAGCUCGCAGUCAAG | -0.0181
GGUCACGUCUCAAUCAACUCUAUUUCCAGGGAAAGCCCUGGUUUACUCAACAGCUCGCAGUCAAG | 0.101
GGUCACGUCUCAAUCAACUCAGUCUCAGGAGUUUCCUCCUGCUAUUUCAACAGCUCGCAGUCAAG | 0.343
GGUCACGUCUCAAUCAACUCUUUCCCAGGAGUUUCCUCCUGUUUACUCAACAGCUCGCAGUCAAG | 0.141
GGUCACGUCUCAAUCAACUCCCAAGAGGGGGGGAAAACCCCUUUACCCUCCAGAUCAACAGCUCGCAGUCAAG | -0.151
GGUCACGUCUCAAUCAACUCAACUUCAGGAGUUUACUCCUGUUAACUCAACAGCUCGCAGUCAAG | -0.165
GGUCACGUCUCAAUCAACUCACUCGAGGGGGGGAAAACCCCUUUACCCUCAUUUUCAACAGCUCGCAGUCAAG | -0.292
GGUCACGUCUCAAUCAACUCUAUCCCCAGGGAAACCCCUGGCUUAUUCAACAGCUCGCAGUCAAG | -0.116
GGUCACGUCUCAAUCAACUCCAAAGAGGGGGGGAAAACCCCUUUACCCUCACCAUCAACAGCUCGCAGUCAAG | 0.244
GGUCACGUCUCAAUCAACUCUAUGGCAGGAGUUUACUCCUGGAAUUUCAACAGCUCGCAGUCAAG | -0.0867
GGUCACGUCUCAAUCAACUCAUUUGCAGGAGUUUUCUCCUGGUAUUUCAACAGCUCGCAGUCAAG | -0.109
GGUCACGUCUCAAUCAACUCAACGCCAGGAGUUUUCUCCUGCUUUUUCAACAGCUCGCAGUCAAG | -0.0759
GGUCACGUCUCAAUCAACUCUCAAGAGGGGGGGAAAACCCCUUUACCCUCGCCUUCAACAGCUCGCAGUCAAG | -0.157
GGUCACGUCUCAAUCAACUCUUCUCCCAGGGAAAGCCCUGGCUAUCUCAACAGCUCGCAGUCAAG | -0.00576
GGUCACGUCUCAAUCAACUCUCAAGAGGGGGGGAAAACCCCUUUGCCCUCACCGUCAACAGCUCGCAGUCAAG | 0.21
GGUCACGUCUCAAUCAACUCACAAGAGGGGGGGAAAACCCCUUUACCCUCGUUUUCAACAGCUCGCAGUCAAG | -0.268

Sequence | binding signal (log2 fold change)
GGUCACGUCUCAAUCAACUCUUCCCCCAGGGAAAACCCUGGCAUUCUCAACAGCUCGCAGUCAAG | -0.00854
GGUCACGUCUCAAUCAACUCUUCAGAGGGGGGGAAAACCCCUUUACCCUCAACAUCAACAGCUCGCAGUCAAG | -0.365
GGUCACGUCUCAAUCAACUCAACUCCCAGGGAAACCCCUGGCAAUCUCAACAGCUCGCAGUCAAG | 0.0539
GGUCACGUCUCAAUCAACUCCAAAGAGGGGGGGAAAACCCCUUUACCCUCAUUUUCAACAGCUCGCAGUCAAG | -0.219
GGUCACGUCUCAAUCAACUCUCAAGAGGGGGGGAAAACCCCUUUGCCCUCACUAUCAACAGCUCGCAGUCAAG | -0.0223
GGUCACGUCUCAAUCAACUCAGUCCCCAGGGAAAGCCCUGGUUAAUUCAACAGCUCGCAGUCAAG | -0.351
GGUCACGUCUCAAUCAACUCAACUCCAGGAGUUUUCUCCUGUUAACUCAACAGCUCGCAGUCAAG | -0.11
GGUCACGUCUCAAUCAACUCAUGUCCAGGAGUUUGCUCCUGCUAUUUCAACAGCUCGCAGUCAAG | 0.0699
GGUCACGUCUCAAUCAACUCAGUUUCCAGGGAAAGCCCUGGUUUUUUCAACAGCUCGCAGUCAAG | -0.0636
GGUCACGUCUCAAUCAACUCAACUCCAGGAGUUUCCUCCUGUUAUGUCAACAGCUCGCAGUCAAG | -0.0604
GGUCACGUCUCAAUCAACUCAACGGAGGGGGGGAAAACCCCUUUACCCUCAUAUUCAACAGCUCGCAGUCAAG | -0.148
GGUCACGUCUCAAUCAACUCAUAGGAGGGGGGGAAAACCCCUUUACCCUCACAUUCAACAGCUCGCAGUCAAG | -0.072
GGUCACGUCUCAAUCAACUCUAAAGAGGGGGGGAAAACCCCUUUGCCCUCGUCAUCAACAGCUCGCAGUCAAG | -0.395
GGUCACGUCUCAAUCAACUCAUUUCCCAGGGAAAACCCUGGUUUAUUCAACAGCUCGCAGUCAAG | -0.0866
GGUCACGUCUCAAUCAACUCUUCCUCCAGGGAAAGCCCUGGCAUUUUCAACAGCUCGCAGUCAAG | -0.0398
GGUCACGUCUCAAUCAACUCCAUCGAGGGGGGGAAAACCCCUUUACCCUCAAACUCAACAGCUCGCAGUCAAG | -0.126
GGUCACGUCUCAAUCAACUCAACUUCAGGAGUUUUCUCCUGCAUAUUCAACAGCUCGCAGUCAAG | 0.199
GGUCACGUCUCAAUCAACUCAUCUCCAGGAGUUUCCUCCUGCUAUUUCAACAGCUCGCAGUCAAG | 0.0636
GGUCACGUCUCAAUCAACUCCUCAGAGGGGGGGAAAACCCCUUUACCCUCCAACUCAACAGCUCGCAGUCAAG | -0.207
GGUCACGUCUCAAUCAACUCUUUUCCCAGGGAAAACCCUGGUAUACUCAACAGCUCGCAGUCAAG | 0.0427
GGUCACGUCUCAAUCAACUCAAUCCCCAGGGAAAGCCCUGGUUAACUCAACAGCUCGCAGUCAAG | 0.000447
GGUCACGUCUCAAUCAACUCAAGUCCCAGGGAAAACCCUGGCAUAUUCAACAGCUCGCAGUCAAG | -0.479
GGUCACGUCUCAAUCAACUCAAUUUCAGGAGUUUGCUCCUGCUAUCUCAACAGCUCGCAGUCAAG | 0.126
GGUCACGUCUCAAUCAACUCAUCCCCAGGAGUUUGCUCCUGCUUUUUCAACAGCUCGCAGUCAAG | 0.112
GGUCACGUCUCAAUCAACUCAAUCCCCAGGGAAAACCCUGGUAAUCUCAACAGCUCGCAGUCAAG | -0.131

Sequence | binding signal (log2 fold change)
GGUCACGUCUCAAUCAACUCUUUCUCCAGGGAAAGCCCUGGUUAAUUCAACAGCUCGCAGUCAAG | -0.116
GGUCACGUCUCAAUCAACUCAUUUUCAGGAGUUUCCUCCUGUUUACUCAACAGCUCGCAGUCAAG | 0.0375
GGUCACGUCUCAAUCAACUCUUUUUCCAGGGAAACCCCUGGUAAUCUCAACAGCUCGCAGUCAAG | -0.0465
GGUCACGUCUCAAUCAACUCAAUUCCCAGGGAAAACCCUGGCUAAUUCAACAGCUCGCAGUCAAG | -0.0744
GGUCACGUCUCAAUCAACUCAAUCCCAGGAGUUUACUCCUGUAAAUUCAACAGCUCGCAGUCAAG | 0.0428
GGUCACGUCUCAAUCAACUCUAUUUCAGGAGUUUGCUCCUGCUUUUUCAACAGCUCGCAGUCAAG | -0.112
GGUCACGUCUCAAUCAACUCUAUUCCAGGAGUUUACUCCUGCUAAUUCAACAGCUCGCAGUCAAG | -0.0891
GGUCACGUCUCAAUCAACUCUUCCUCCAGGGAAAGCCCUGGCAAUCUCAACAGCUCGCAGUCAAG | -0.053
GGUCACGUCUCAAUCAACUCAUCUUCCAGGGAAACCCCUGGCAUAUUCAACAGCUCGCAGUCAAG | 0.161
GGUCACGUCUCAAUCAACUCUUCCCCCAGGGAAAGCCCUGGUAUUCUCAACAGCUCGCAGUCAAG | 0.14
GGUCACGUCUCAAUCAACUCAUCAGAGGGGGGGAAAACCCCUUUGCCCUCCAUUUCAACAGCUCGCAGUCAAG | -0.122
GGUCACGUCUCAAUCAACUCAACUUCAGGAGUUUUCUCCUGUUAUCUCAACAGCUCGCAGUCAAG | 0.102
GGUCACGUCUCAAUCAACUCAUCCCCAGGAGUUUGCUCCUGCUUUCUCAACAGCUCGCAGUCAAG | 0.26
GGUCACGUCUCAAUCAACUCAUCGCCCAGGGAAAUCCCUGGUAAAUUCAACAGCUCGCAGUCAAG | -0.18
GGUCACGUCUCAAUCAACUCAACUUCAGGAGUUUGCUCCUGCUAAUUCAACAGCUCGCAGUCAAG | 0.143
GGUCACGUCUCAAUCAACUCAAUCCCCAGGGAAAACCCUGGCUUUCUCAACAGCUCGCAGUCAAG | 0.159
GGUCACGUCUCAAUCAACUCAACUCCAGGAGUUUUCUCCUGUUAUCUCAACAGCUCGCAGUCAAG | -0.0954
GGUCACGUCUCAAUCAACUCUUUUUCAGGAGUUUUCUCCUGCAUACUCAACAGCUCGCAGUCAAG | -0.117
GGUCACGUCUCAAUCAACUCAUCUUCCAGGGAAAACCCUGGCAUACUCAACAGCUCGCAGUCAAG | 0.114
GGUCACGUCUCAAUCAACUCAUUCUCAGGAGUUUGCUCCUGUUUAUUCAACAGCUCGCAGUCAAG | -0.0291
GGUCACGUCUCAAUCAACUCCUCAGAGGGGGGGAAAACCCCUUUACCCUCAAAUUCAACAGCUCGCAGUCAAG | -0.172
GGUCACGUCUCAAUCAACUCCUCAGAGGGGGGGAAAACCCCUUUGCCCUCAUAAUCAACAGCUCGCAGUCAAG | 0.29
GGUCACGUCUCAAUCAACUCAGUCCCCAGGGAAACCCCUGGUAUUUUCAACAGCUCGCAGUCAAG | 0.335
GGUCACGUCUCAAUCAACUCUAGUCCCAGGGAAAGCCCUGGUAAUUUCAACAGCUCGCAGUCAAG | -0.184
